Data on 167 variants can be found in the RNAGym collection of RNA variant scans (doi:10.7554/elife.90254).

Read counts are not given, so values of variants with three or more changes are uncertain.

B1: OR4K15 (parent)
chain: GUUAACGGUCAUAGGCCAUGGAAACUAGGAGCACCAUUUCGCUGCCAGUGAAGAAAUGAACAAAGAAAAUCUGGGCCAGGCAGGCAUCAAAAGAAAUAGUCUUGCGCUCAACCAGAAAGUCUGUAAUCAUUUUAAGGGUA

The data set covers variants of B1. The experiment in a line: self-cleavage, relative activity (ratio to wild type); higher = more cleavage; in vitro, sequencing; the parent is a self-cleaving ribozyme.
U9C U72A U100C G106A: the self-cleavage was found to be 0.02. The figure for U9C A56G U87C A90G is 0.97. Turning to U9G U100A A114G, the self-cleavage was 0.16. With U9G A24G A36U U97C the figure was 1.23; with U9C U12C A82U A118G, 0.15; with U9C U19A U122C, 1.02.

Take U9C G50A A66G: the self-cleavage is 1.51. For the variant U9G A67U A86U, the self-cleavage turned out to be 0.94. With A11G A51G A94G the figure was 0.89; with A11G C76U A86G, 0.1.

Regarding U9G A23G G41A A51G A54G A94G, the self-cleavage was 0.79.

On to U9C U100C U132A, for which the self-cleavage came out at 0.9. The figure for A11G U26C U127C U131C is 0.37. With A11G A23G U72A U108A the figure was 0.04; with C10U A90G U122C, 0.22; with A11G A59G A117U, 0.28. In the case of A11C A30G A33U A129G, the self-cleavage is 0.85. With A11G A23G A60G A62G U87C the figure was 0.27. The figure for U9C G28U U43C A52G is 0.79; for A11G A24G A59G C101U it is 0.48; for U9C A69G A78U A117G it is 0.42. The figure for U9C A60G U72C is 0.27. With U9C A86G A98G, the self-cleavage turned out to be 0.7. The figure for A11C U49G A60G U97C A111G is 0; for U9C U43C C85A A89U U100C it is 1.31.

In the case of A11G A18U A23G U38C, the self-cleavage is 0.79. With A11G A92G A95G, the self-cleavage stood at 2.06.

As to A11G A60G U72A, the self-cleavage amounted to 0.31.

U9C U57G A91G U108A A114U A118G: the self-cleavage came out at 0.01. The figure for U9C C34U U127C is 1.27; for U9C A92G A98G it is 0.38. The figure for A11G A110G U130C is 0.04; for A11G A125G U133C it is 0.49; for C10U A60G U103C it is 0.86. The figure for U9C U19C U37C A62G U100C is 1.69; for A11G A51U A91U it is 0.63. Regarding U9G A64G A96G A111G, the self-cleavage was found to be 0.02. Regarding A11G A13G A51U A94U A110G, the self-cleavage is 0.02.

U9C A92G U122C: the self-cleavage was 1.31. The figure for U9C U43C A55G A91G is 1.05; for U9C U39A A63G A68G A96G C113U it is 0.26. With U9C U19C A78G the figure was 0.46. Take A11G A23G U57C A62U U127C: the self-cleavage came out at 0.75.

Turning to U9C A66G U72C A94C A118U, the self-cleavage stood at 0.08. Consider A11G C32U A51G A118G, for which the self-cleavage is 0.93. For the variant U9C C42U A67G, the self-cleavage was 0.81. In the case of A11G A27U U57C A66G U72A A90U U120C, the self-cleavage was determined as 0.17. With A11G A51G A111G the figure was 0.3. With A11C A23G A90G A116C the figure was 0.03. The figure for U9C U49C A82G U100C is 1.8; for A11G U19A A33U A51G A118G it is 1.09; for U9C U39C A60U A135G it is 1.27. On to U9C U43C A68G A118G, for which the self-cleavage turned out to be 0.77. The figure for U9C A96G A134G is 2.14; for A11G A56G A110G it is 0.3. On to U9C U19C U39A, for which the self-cleavage stood at 1.74.

For the variant C10A A47G A60U A67G U97C, the self-cleavage came out at 0.76. With A11G A60G A78U, the self-cleavage amounted to 0.37. With U9C G14C U19A A54U, the self-cleavage came to 0.99.

A11G A18G A118G: the self-cleavage worked out at 1.18. As for A11G A30G G73A A117U U132A, the self-cleavage worked out at 0.04. With A11G A47G A59G A117G A140G, the self-cleavage was 0.98. The figure for U9C G21U U72A A94G A116G U130A is 0; for A11G A22U U103C it is 0.97; for U9C A66G A90G it is 0.91. For the variant U9C A59G A62G, the self-cleavage came to 0.43. The figure for A11C A55C U130C is 1.17; for A11G A67G G75C A140C it is 0.16; for U9C A89G A117U it is 0.83. As to A11G A30G A89U, the self-cleavage worked out at 1.48.

With U9C A78G A116U, the self-cleavage was 0.12. The figure for A11G A67G U72C U87A U122C is 0.1. The figure for A11G C46U A64G A117G is 1.57; for A11G A47U U49G U72C A116G A135G it is 0.06. With U9C A82G G123A U127C the figure was 0.26.

For C10U A11G A47G A51G A62G A129G U130C G137A, the self-cleavage is 0.38. For A11G U19C U43C A60U, the self-cleavage came out at 0.92. The figure for U9C A94G U103C is 1.38; for U9C C46U A116G it is 1.23. With A11G A54G U103C the figure was 0.99.

Turning to A11G A33G A91U, the self-cleavage was found to be 1.97.

Consider A11G A82U A140U, for which the self-cleavage turned out to be 0.12. With U9C U37C U139C the figure was 1.58. With U9C U39C G83A, the self-cleavage is 1.74. The figure for A11G C46U U87C A94G U124A A125U is 2. With C10U A55G A69C U103C A117G the figure was 0.56. With U9C A91G A94G U130C the figure was 0.65; with A11C A63G A134G, 1.44. In the case of A11G A22U A69U, the self-cleavage was 0.89. The figure for U9C U122C U127A is 1.99.

In the case of U9G A62G U131C, the self-cleavage worked out at 1.06.

In the case of U9C A90G A134G, the self-cleavage amounted to 0.2.

For A11G A59G G73A, the self-cleavage came out at 0.07. As for U9C G21U A51U A63G A82G, the self-cleavage was 1.45. Take C10A U49C U102A: the self-cleavage worked out at 0.82. As for A11G A52U A54G U57C A59G A67G A117G A118G, the self-cleavage is 0.92. With A11G A54U U122C the figure was 0.55. The figure for A11G A13U A52G is 1.69; for A11C A118U A126G A140G it is 0.07. The figure for U9C C17U A47U U72C A95G is 0.39; for C10U U37C A94U it is 0.96. Regarding A11C U49C A140G, the self-cleavage came out at 1.12. The figure for U9C A117G U122C U130C is 1.55; for C10A C16U A18C A51U U57C A96G it is 1.24; for A11G A36U A62C U130C A140U it is 0.88.

In the case of A11G A51G A78U U87A U103C A110C, the self-cleavage was determined as 0.1.

As for A11G A96G A129G, the self-cleavage came out at 0.34. The figure for A11G A22G A86U is 1.31; for A11G A23U U38C A51G A52G U100C it is 0.

As for U9C G14C A47G A82G, the self-cleavage was 0.56.

As for U9C G44A A55G U124C, the self-cleavage was 1.23.

For A11G A52U A54G A90G A96G U102C A111G, the self-cleavage came out at 0.01. The figure for A11G A89C A111G U122A is 0.03; for U9C A91G A117G it is 1.41; for A11G C46U A117G it is 1.79. The figure for A11G C46U A91G U100C A110G is 0.23; for U9C G29A A30G A94G U127C it is 1.18. The figure for A11G A33G A66G A90G U122C is 0.44; for U9C A60C U108A it is 0.01; for U9C U26C A30U A63U A89U it is 1.4. Take U9C U87C U130C: the self-cleavage was 1.11. With A11C U43C U100A the figure was 0.5; with A11G A96G U97G, 1.63. The figure for A11G A33G A47G is 0.22; for A11G G20A U100A it is 0.64. On to A11G G44A A59G A64G G83A U87C, for which the self-cleavage was 1.61. The figure for C10U U39C A91U A117C U122A U139C is 0.59; for U9C A64G A90G U122C it is 1.94; for U9C U12C A54G A67G it is 0.68. The figure for U9C U72A U124C is 0.09. The figure for U9C A90G A118G is 0.63; for C10U G14A A110G A117G it is 0.28. As for U9C A82U A111G, the self-cleavage was 0.03.

As to A11C G14A U19A U70C A86G U102A, the self-cleavage is 0.12. Regarding U9C A78G A90G A116U, the self-cleavage turned out to be 0.06. The figure for C10U A54G A55U is 0.6; for A11G A18G A98U it is 1.01. With U9C U38C A111G the figure was 0.04; with U9C U37C U122C, 1.16. For A11G U19C A47G U72A A116G, the self-cleavage is 0.21. With A11G G75A A91U A114G the figure was 0.1; with C10U A52G U108C, 0.01; with A11G A96G A116G, 0.1. The figure for U9C U12C A24G is 2.67; for A11G A22G A60G it is 0.72.

Regarding A11G A13G U49C A55G A60G A114U, the self-cleavage was found to be 0.05. Regarding A11G A51U A78U, the self-cleavage came out at 0.31. With A11G A47U U103A the figure was 0.44. With U9C U57A A114C the figure was 0.04; with U9C A56G U108G, 0.07; with A11G A22G U39C U43A U120C, 1.18. As for A11G A51G A64G A114U, the self-cleavage was 0.35.

As for A11G A51G A91U U120C, the self-cleavage stood at 0.97. The figure for A11G A23G U39C U72C is 0.19. Take A11G C71U A110C: the self-cleavage is 0.11. With U9C U26C G48A A54G A55G A95G the figure was 1.23; with U9C U43C A52G U102G, 0.85. With A11G U19G A55G A96G the figure was 1.68.

As to U9C U49C U132C, the self-cleavage amounted to 1.43. Turning to A11C A22G A82G U132C, the self-cleavage came out at 0.44. The figure for A11G A78C U131C is 0.27. With A11G A56G A94G A125G the figure was 0.68; with C10U A36U A86G, 1.12. With U9C U43A A96G the figure was 2.31.

For U9G G44A A47U, the self-cleavage was determined as 1.25. With A11G A60U A66G U70C the figure was 0.42; with A11G U19C A51G A91G U103C C105U, 0.03.
